Among all 350,000 compounds or so, about 260 (0.074%) were called active. The shares of active, inactive and inconclusive entries below differ from those in the screen. Calls come from the whole dose curve; as a rule, active = well fitted inhibition curve with a large enough effect; inconclusive = small, poorly fitted or top-dose-only effect; inactive = no such curve, though single readings can be large or run the other way. A potency beside an inconclusive call is a rough fit, not a confirmed value.
Target: Ferritin light chain (Equus caballus) (UniProt P02791)
Chain of UniProt P02791 (P02791 whole entry, looked up): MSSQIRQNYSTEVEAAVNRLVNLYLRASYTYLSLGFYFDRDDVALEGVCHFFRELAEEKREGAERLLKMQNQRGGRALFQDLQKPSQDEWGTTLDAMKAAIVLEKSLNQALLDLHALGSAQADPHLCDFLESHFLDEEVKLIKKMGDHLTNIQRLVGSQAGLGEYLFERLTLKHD
Test: qHTS Assay for Identification of Novel General Anesthetics; note: nearly all actives have a fitted effect of over 20% in size
Conditions: apoferritin/1-aminoanthracene competitive binding, fluorescence; series mostly up to 77.5 µM
In short: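 Concentration-response curves derived by four-parameter Hill fitting of normalized fluorescence, where compounds displaced 1-AMA from 10 uM horse apoferritin following a brief 10 min room-temperature incubation; propofol titration acted as positive control.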
Potency is the fitted concentration of half-maximal effect; tags give direction and shape of the fitted curve.

Potency, inconclusive:
O=C(Nc1cccc(NC(=O)c2ccco2)c1)c1ccc2c(c1)OCCO2 28.2 µM [inhibitor, single point]
c1ccc(Cc2nnc(Sc3ccccc3)c3ccccc23)cc1 17.8 µM [inhibitor, partial curve]
Cc1ccc([N+](=O)[O-])cc1NC(=O)CCc1ccccc1 28.2 µM [inhibitor, partial curve]
CC(=O)c1ccc(OCCCOc2cccc3cccnc23)cc1 35.5 µM [inhibitor, single point]
CCCCOc1ccc(N2C(=O)CC(N(O)c3ccccc3)C2=O)cc1 (configuration not stated) 17.8 µM [inhibitor, partial curve]
CC1CCCCN1S(=O)(=O)c1cccc2nonc12 (configuration not stated) 22.4 µM [inhibitor, partial curve]
Cc1cccc(-n2c(SCc3cc(=O)n4ccsc4n3)nc3ccccc32)c1 25.1 µM [inhibitor, partial curve]
O=S(=O)(NC(=NCc1ccccc1)c1ccccc1F)c1ccccc1 35.5 µM [inhibitor, partial curve]
CCOc1ccccc1NC(=O)c1cn(C2CCCC2)c(=O)c2c1c1ccccc1n2C 1.58 µM [inhibitor, partial curve]
O=C(NN=C(Cc1ccccc1)Cc1ccccc1)C1CC1 28.2 µM [inhibitor, partial curve]
COC(=O)c1ccccc1NC(=S)NC(NC(=O)c1ccccc1[N+](=O)[O-])C(Cl)(Cl)Cl (configuration not stated) 3.98 µM [inhibitor, full curve, poor fit]
CCOc1ccc(NS(=O)(=O)c2ccc(N)cc2)cc1 35.5 µM [inhibitor, single point]
CCN(CCCNC(=O)CNC(=O)c1nn(-c2ccc(OC)cc2OC)c(=O)c2ccccc12)c1cccc(C)c1 31.6 µM [inhibitor, single point]
C/C(=N/NC(=O)c1ccccc1O)c1ccc(N2C(=O)C3CCCCC3C2=O)cc1 (configuration not stated) 39.8 µM [inhibitor, partial curve]
Cc1cccc2c1N(CCCOc1ccccc1)C(=O)C2=O 31.6 µM [inhibitor, partial curve]
Cc1ccc(C)c(N2CCN(C(=O)c3cc4ccc5cccnc5c4[nH]3)CC2)c1 5.62 µM [inhibitor, partial curve]
CC(C)CC(=O)Nc1cc(C(F)(F)F)ccc1N1CCOCC1 56.2 µM [inhibitor, partial curve]
Cc1ccc(OCC(=O)Nc2ccc(Cl)c(-c3nc4ncccc4o3)c2)cc1C 31.6 µM [inhibitor, partial curve, poor fit]
CCOC(=O)C/C(C)=N\Nc1ccc([N+](=O)[O-])cc1[N+](=O)[O-] 28.2 µM [inhibitor, partial curve]
CCCc1ccc(C(=O)Cn2nc(C(=O)O)c3ccccc3c2=O)cc1 14.1 µM [inhibitor, partial curve]
O=C(CSc1nnnn1C1CCCCC1)Nc1cccc(NC(=O)c2ccco2)c1 17.8 µM [inhibitor, partial curve]
CCOc1ccc(NC(=S)N=Nc2c(O)[nH]c3ccccc23)cc1 28.2 µM [inhibitor, partial curve]
O=S(=O)(NCc1ccccc1)c1cccs1 28.2 µM [inhibitor, partial curve]
CCCC(=O)Nc1ccc(NCc2ccc(C)s2)cc1 8.91 µM [inhibitor, partial curve]
Cc1ccc(NC(=O)CNC(=O)Cn2cnc3sc(C)c(C)c3c2=O)cc1F 22.4 µM [inhibitor, partial curve]
CC1=C[C@@H](C)[C@@H](c2ccc(C(F)(F)F)cc2)OC1=O 50.1 µM [inhibitor, single point]
CCCCCNC(=O)c1c[nH]c2ccc(S(=O)(=O)N3CCC(C)CC3)cc2c1=O 6.31 µM [inhibitor, single point]
O=c1c2ccsc2ncn1Cc1ccccc1F 28.2 µM [inhibitor, partial curve]
Cc1sc2nc[nH]c(=S)c2c1-c1ccccc1 28.2 µM [inhibitor, partial curve]
Cc1ccc(/C=N/NC(=O)Cc2ccc(Cl)cc2)s1 10 µM [inhibitor, partial curve]
O=C1CC(N2CCN(c3cccc(C(F)(F)F)c3)CC2)C(=O)N1c1ccc(F)cc1 (configuration not stated) 44.7 µM [inhibitor, partial curve, poor fit]
Cc1ccc(N2CC(C(=O)Nc3nnc(SCc4cccnc4)s3)CC2=O)cc1 (configuration not stated) 39.8 µM [inhibitor, single point]
COc1ccc(C2=NN(CN3C(=O)C(=O)c4ccccc43)C(c3ccc(C)cc3)C2)cc1 (configuration not stated) 31.6 µM [inhibitor, partial curve]
Cc1nn(C(=O)c2ccc(Cl)cc2)c(C)c1Sc1ccc(Cl)cc1 35.5 µM [inhibitor, partial curve]
CCOC(=O)C1=NNC(C(=O)c2ccc(C)cc2)C1c1ccc(OC)cc1 (configuration not stated) 28.2 µM [inhibitor, partial curve]
CC(C)Cc1ccc(S(=O)(=O)N2CCCC2)cc1 50.1 µM [inhibitor, single point]
N#CCSc1nnc(CNc2cccc(Cl)c2)o1 56.2 µM [inhibitor, single point]
O=C(NN1C(=O)c2ccccc2NC1c1ccccc1OCc1ccccc1)c1ccncc1 (configuration not stated) 39.8 µM [inhibitor, partial curve]
O=C(CCCC(=O)OCC(Cl)=C(Cl)Cl)Nc1ccccc1F 56.2 µM [inhibitor, single point]
COCCn1c(C)cc(C(=O)COC(=O)c2cc3c(s2)CCC3)c1C 35.5 µM [inhibitor, partial curve]
CCOc1cc(/C=N/O)cc(Cl)c1OC 20 µM [inhibitor, partial curve]
CC1CCCC(C)N1C(=O)Nc1cccc(Cl)c1 (configuration not stated) 28.2 µM [inhibitor, partial curve]
COc1ccc(CCNC(=O)c2cc(-c3ccc(C)cc3)nc3n[nH]c(-c4ccccc4)c23)cc1OC 1.26 µM [inhibitor, full curve]
COC(=O)CNC(=O)C12CC3CC(C1)CC(c1ccc(C)cc1)(C3)C2 31.6 µM [inhibitor, partial curve]
O=C(CSc1ncn[nH]1)NC12CC3CC(CC(C3)C1)C2 14.1 µM [inhibitor, partial curve]
COC(=O)C1=C(C(=O)OC)SC2(S1)C(C(=O)OC)=C(C(=O)OC)SC1=C2c2cccc(C)c2NC1(C)C 39.8 µM [inhibitor, partial curve]
COc1ccc(C(=O)CN2C(=O)NC3(CCCc4ccccc43)C2=O)c(OC)c1 (configuration not stated) 35.5 µM [inhibitor, partial curve]
CSc1nc(N)c(C#N)c(-c2ccccc2Cl)c1C#N 15.8 µM [inhibitor, partial curve]
COc1ccc(CNC(=O)C2CCN(c3nc4ccccc4[nH]3)CC2)c(OC)c1 3.98 µM [inhibitor, partial curve, poor fit]
CC(=O)NCc1c(Cl)cccc1-n1cccc1 44.7 µM [inhibitor, single point]
N=c1n(CCN2CCCCC2)c2ccccc2n1CC(=O)c1cccc([N+](=O)[O-])c1 20 µM [inhibitor, partial curve]

Potency, inactive:
CCc1c(C)nc2c(-c3ccccc3)c(C)[nH]n2c1=O
Cc1ccc(-c2ccc(C(=O)Nc3cccc(F)c3)o2)c2ccccc12
O=C(/C=C/c1ccco1)NC(=S)Nc1ccccc1O
COc1ccccc1NC(=O)C1=C(C)Nc2nc(SCc3ccccc3)nn2C1c1ccccn1 (configuration not stated)
COC(=O)c1[nH]c2cc(OC)c(OC)cc2c1NC(=O)CN1CCN(Cc2ccccc2)CC1
O=S(=O)(c1ccccc1)c1nc(-c2ccco2)oc1N1CCCCCC1
Cc1cc(=O)oc2cc(OCC(=O)Nc3nnc(CC(C)C)s3)ccc12
NC(=S)c1ncc(C(F)(F)F)cc1Cl
Cc1ccccc1CCNC(=O)c1ccc2c(c1)c(C)c(C)n2C
O=C(c1cn(-c2ccccc2)nc1-c1ccc(F)cc1)N1CCCCC1
Cc1nc2c3cc(F)ccc3n(Cc3ccccc3)c2s1
CS(=O)(=O)Nc1nc2n(n1)C(c1ccccc1)C=C(c1ccc(Br)cc1)N2 (configuration not stated)
CCc1ccc(C2=CC(c3cc(Br)ccc3F)n3ncnc3N2)cc1 (configuration not stated)
Clc1nc(-c2ccccn2)nc2scc(-c3ccccc3)c12
COc1cc(CN(C(=O)COc2ccc(Br)cc2)c2ccccn2)cc(OC)c1OC
CCCCC(=O)NC(Nc1cc(C)ccn1)(C(=O)OCC)C(F)(F)F (configuration not stated)

From PubChem BioAssay AID485281 (National Center for Advancing Translational Sciences (NCATS), 2010)
